Results on 24 sequences are retold here after the supplement of paper PMC11417369.

± gives the standard deviation of the averaged measurements. The list shows a part of the results.

The subject of the test is PfAP2-G AP2 domain (GST-tagged). As to the kind of experiment: gcPBM binding intensity (ln(normalized median fluorescence intensity)); higher = stronger DNA binding. The essentials:
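The binding buffer was 1× PBS containing 1% milk, 0.2 mg/ml BSA, 0.5% salmon testes DNA and 0.03% Triton X-100. In it, GST-tagged P. falciparum DNA-binding domains expressed in E. coli were applied for 1 h to an Agilent 4 × 180k array of primer-extended double-stranded 36-bp intergenic genomic probes plus negative controls. Binding intensity, read with Alexa488 anti-GST antibody and a 488 nm scan, is the highest Masliner-normalised natural-log median intensity across replicate spots of either probe orientation.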
On to “TATTGAAAAAGTGGAAAAAAGTACATCATACGGGAA [CACACA_negctrl_site1091]”, for which the “gcPBM binding intensity (ln)” value stood at 11.4 ± 0.73.

Consider “TAACAAAGTAAAAGAACATGCAAACACGCACACAGA [TGCATGCA_site374]”, for which the “gcPBM binding intensity (ln)” value was 10.4 ± 0.13.

As for “GGGGAAAAAGCAGGTTGTACAGTGATGTCCATATAA [XGTACX_site7606]”, the “gcPBM binding intensity (ln)” value is 11.5 ± 0.91.

Turning to “TAAATCACAAAATTATGTACTAAGAAGGAGCAACAT [XGTACX_site6742]”, the “gcPBM binding intensity (ln)” value came to 10.9 ± 0.62.

In the case of “TATACCTTAATATACACACATACATATATATATATA [CACACA_site1339]”, the “gcPBM binding intensity (ln)” value was found to be 10 ± 0.17.

In the case of TATATACATTTTTATGTGCACATTTTATTTTTAAAT, the “gcPBM binding intensity (ln)” value is 10.8 ± 0.45.

For “TTTTAATTTAAAAATTAATTTATATATATATATATA [TGCATGCA_negctrl_site447]”, the “gcPBM binding intensity (ln)” value is 9.73 ± 0.16.

Take “TTTAGACTTTTCTATAGTACATATTATATATATATA [XGTACX_site6532]”: the “gcPBM binding intensity (ln)” value came out at 10.7 ± 0.49.

As to “AGTGTATTAAATTTTGAACACACAAAATAAAACATA [CACACA_site8483]”, the “gcPBM binding intensity (ln)” value is 10.2 ± 0.2.

Regarding “ATTGAAAAACCGTTTAGTACATATCATCACGTTTGT [XGTACX_site1295]”, the “gcPBM binding intensity (ln)” value was 10.9 ± 0.52.

As to “TATATATATATATGTACACACATCAATCATATTAAC [CACACA_site1946]”, the “gcPBM binding intensity (ln)” value worked out at 11.4 ± 0.95.

Regarding “TATATATATATATATACATGCATTTTTGTTTGCTTA [TGCATGCA_site256]”, the “gcPBM binding intensity (ln)” value was 9.88 ± 0.35.

Turning to “TTTTTTTTTTCTCCTGCATGCAGCATTTATATATTA [TGCATGCA_site390]”, the “gcPBM binding intensity (ln)” value stood at 10.1 ± 0.28.

Regarding “GACAACGTTTCAATGTGTACATATTTATAATATATA [XGTACX_site2427]”, the “gcPBM binding intensity (ln)” value turned out to be 11.5 ± 0.95.

Turning to “TACAAATATAGATGCACACACATATACATACCTATA [CACACA_site7094]”, the “gcPBM binding intensity (ln)” value came out at 10.1 ± 0.2.

Consider “TTTTTACAAAAAAAAAAAAAAAAAATAAAAATAAAT [CACACA_negctrl_site1738]”, for which the “gcPBM binding intensity (ln)” value turned out to be 9.52 ± 0.028.

As for “TTTTTTTTTTTTTTTACACACTGCATACAAGAAAAA [CACACA_site5642]”, the “gcPBM binding intensity (ln)” value was found to be 10.1 ± 0.49.

In the case of “AAAATACGAATATAAACATGCACCATATAGAACAAA [TGCATGCA_site925]”, the “gcPBM binding intensity (ln)” value worked out at 10.2 ± 0.16.

Consider “TAAAATAAAATAAGTAGTACATATATAATTATATAT [XGTACX_site6733]”, for which the “gcPBM binding intensity (ln)” value is 11.5 ± 1.

As for “GACGTGGAAAAAAAAACACACACAAAAAAAAAAAAA [CACACA_site9324]”, the “gcPBM binding intensity (ln)” value was 9.95 ± 0.42.

Turning to “TGAACATCATTTTTATGTACACACACATATACGTTG [XGTACX_site3864]”, the “gcPBM binding intensity (ln)” value is 11.4 ± 0.86.

In the case of “AAAACAAACAAAAAAAAAAAAAAAAATATCAATCTA [TGCATGCA_negctrl_site203]”, the “gcPBM binding intensity (ln)” value is 9.22 ± 0.27.

“TTTTTTAAATATTATTTTTATGAGTAAATATATTAT [GTGCAC_negctrl_site277]”: the “gcPBM binding intensity (ln)” value is 9.73 ± 0.028.

With “ATATATCATGCCAAGGGTACAAATGTGTAGTTGAAA [XGTACX_site2820]”, the “gcPBM binding intensity (ln)” value amounted to 11.1 ± 0.52.
